# Laboratory results from patent US7816326B2, “Sulfur compounds as inhibitors of hepatitis C virus NS3 serine protease” (Schering Corporation, priority 2004, dated 2010).
# pKi: −log10 of the molar value.
# Target: Recombinant heterodimeric HCV NS3/NS4A protease (strain 1a) (Hepatitis C virus genotype 1a, UniProt P27958)
# Experiment: Spectrophotometric assay for HCV protease inhibitory activity
# Format: biochemical
# Details: HCV serine protease inhibitory activity ranges; read-out: Ki* Range
row,SMILES,pKi
1,CCC[C@H](NC(=O)[C@@H]1[C@@H]2[C@H](CN1C(=O)[C@@H](NC(=O)NC1([C@@H](C)S(=O)(=O)N(C)C)CCCCC1)C1(C)CCCCC1)C2(C)C)C(=O)C(=O)NC1CC1 [compound 1409],> 7.12
2,CCCC[C@H](NC(=O)[C@@H]1[C@@H]2[C@H](CN1C(=O)[C@@H](NC(=O)NC1(CS(=O)(=O)N(C(C)C)C(C)C)CCCCC1)C(C)(C)C)C2(C)C)C(=O)C(=O)NC1CC1 [compound 1343],> 7.12
3,C[C@@H](C1CC1)N(C)S(=O)(=O)CC1(NC(=O)N[C@H](C(=O)N2C[C@H]3[C@@H]([C@H]2C(=O)N[C@@H](CC2CC2)C(=O)C(=O)NC2CC2)C3(C)C)C(C)(C)C)CCCCC1 [compound 1289],> 7.12
4,CCN(C1CC1)S(=O)(=O)CC1(NC(=O)N[C@H](C(=O)N2C[C@H]3[C@@H]([C@H]2C(=O)N[C@@H](CC2CC2)C(=O)C(=O)NC2CC2)C3(C)C)C(C)(C)C)CCCCC1 [compound 1358],> 7.12
5,CC(C)N(C1CC1)S(=O)(=O)CC1(NC(=O)N[C@H](C(=O)N2C[C@H]3[C@@H]([C@H]2C(=O)N[C@@H](CC2CC2)C(=O)C(=O)NC2CC2)C3(C)C)C2(C)CCCCC2)CCCCC1 [compound 1363],> 7.12
6,C[C@H](C1(NC(=O)N[C@H](C(=O)N2C[C@H]3[C@@H]([C@H]2C(=O)N[C@@H](CC2CC2)C(=O)C(=O)NC2CC2)C3(C)C)C(C)(C)C)CCCCC1)S(=O)(=O)N(C)C [compound 1400],> 7.12
7,CCCC[C@H](NC(=O)[C@@H]1[C@@H]2[C@H](CN1C(=O)[C@@H](NC(=O)NC1(CS(=O)(=O)N3CCC3)CCCCC1)C1(C)CCCCC1)C2(C)C)C(=O)C(=O)NC1CC1 [compound 1347],> 7.12
8,CCC[C@H](NC(=O)[C@@H]1[C@@H]2[C@H](CN1C(=O)[C@@H](NC(=O)NC1(CS(=O)(=O)N(C)C3CCC3)CCCCC1)C(C)(C)C)C2(C)C)C(=O)C(=O)NC1CC1 [compound 1380],> 7.12
9,CCCC[C@H](NC(=O)[C@@H]1[C@@H]2[C@H](CN1C(=O)[C@@H](NC(=O)NC1(CS(=O)(=O)N(C)C3CCC3)CCCCC1)C1(C)CCCCC1)C2(C)C)C(=O)C(=O)NC1CC1 [compound 1390],> 7.12
10,CCN(C(C)C)S(=O)(=O)CC1(NC(=O)N[C@H](C(=O)N2C[C@H]3[C@@H]([C@H]2C(=O)N[C@@H](CC2CC2)C(=O)C(=O)NC2CC2)C3(C)C)C(C)(C)C)CCCCC1 [compound 1326],> 7.12
11,CCCC[C@H](NC(=O)[C@@H]1[C@@H]2[C@H](CN1C(=O)[C@@H](NC(=O)NC1(CS(=O)(=O)N(C)CC(F)(F)F)CCCCC1)C(C)(C)C)C2(C)C)C(=O)C(=O)NC1CC1 [compound 1311],> 7.12
12,C=CCNC(=O)C(=O)C(CCC)NC(=O)[C@@H]1[C@@H]2[C@H](CN1C(=O)[C@@H](NC(=O)N[C@H]([C@H]1CCN(C)S1(=O)=O)C(C)(C)C)C1(C)CCCCC1)C2(C)C (stereo partly shown) [compound 1224],6.60 to 7.12
13,CCC[C@H](NC(=O)[C@@H]1[C@@H]2[C@H](CN1C(=O)[C@@H](NC(=O)NC1(CS(=O)(=O)N3CC(F)(F)C3)CCCCC1)C(C)(C)C)C2(C)C)C(=O)C(=O)NC1CC1 [compound 1405],> 7.12
14,CCCC[C@H](NC(=O)[C@@H]1[C@@H]2[C@H](CN1C(=O)[C@@H](NC(=O)NC1(CS(=O)(=O)N(C)c3ccccn3)CCCCC1)C(C)(C)C)C2(C)C)C(=O)C(=O)NC1CC1 [compound 1394],> 7.12
15,CCCC[C@H](NC(=O)[C@@H]1[C@@H]2[C@H](CN1C(=O)[C@@H](NC(=O)NC1(CS(=O)(=O)N3CCC3)CCCCC1)C(C)(C)C)C2(C)C)C(=O)C(=O)NC1CC1 [compound 1339],> 7.12
16,CCC[C@H](NC(=O)[C@@H]1[C@@H]2[C@H](CN1C(=O)[C@@H](NC(=O)NC1(CS(=O)(=O)N(CC)C(C)C)CCCCC1)C(C)(C)C)C2(C)C)C(=O)C(=O)NC1CC1 [compound 1302],> 7.12

row,SMILES,pKi
1,CN(CC(F)(F)F)S(=O)(=O)CC1(NC(=O)N[C@H](C(=O)N2C[C@H]3[C@@H]([C@H]2C(=O)N[C@@H](CCC2CC2)C(=O)C(=O)NC2CC2)C3(C)C)C(C)(C)C)CCCCC1 [compound 1312],> 7.12
2,CCCC[C@H](NC(=O)[C@@H]1[C@@H]2[C@H](CN1C(=O)[C@@H](NC(=O)NC1(CS(=O)(=O)N(C)CC)CCCCC1)C1(C)CCCCC1)C2(C)C)C(=O)C(=O)NC1CC1 [compound 1290],> 7.12
3,CCC[C@H](NC(=O)[C@@H]1[C@@H]2[C@H](CN1C(=O)[C@@H](NC(=O)NC1(CS(=O)(=O)N(C)OC)CCCCC1)C(C)(C)C)C2(C)C)C(=O)C(=O)NC1CC1 [compound 1227],> 7.12
4,CCCC[C@H](NC(=O)[C@@H]1[C@@H]2[C@H](CN1C(=O)[C@@H](NC(=O)NC1(CS(=O)(=O)N(C)Cc3ccccc3)CCCCC1)C(C)(C)C)C2(C)C)C(=O)C(=O)NC1CC1 [compound 1260],> 7.12
5,CCC[C@H](NC(=O)[C@@H]1[C@@H]2[C@H](CN1C(=O)[C@@H](NC(=O)NC1(CS(=O)(=O)N(C)C)CCCCC1)C1(C)CCCCC1)C2(C)C)C(=O)C(=O)NC1CC1 [compound 1238],> 7.12
6,CN(C1CCC1)S(=O)(=O)CC1(NC(=O)N[C@H](C(=O)N2C[C@H]3[C@@H]([C@H]2C(=O)N[C@@H](CC2CC2)C(=O)C(=O)NC2CC2)C3(C)C)C(C)(C)C)CCCCC1 [compound 1381],> 7.12
7,CCC[C@H](NC(=O)[C@@H]1[C@@H]2[C@H](CN1C(=O)[C@@H](NC(=O)NC1([C@H](C)S(=O)(=O)N(C)C3CC3)CCCCC1)C(C)(C)C)C2(C)C)C(=O)C(=O)NC1CC1 [compound 1421],> 7.12
8,CN(CC(F)(F)F)S(=O)(=O)CC1(NC(=O)N[C@H](C(=O)N2C[C@H]3[C@@H]([C@H]2C(=O)N[C@@H](CCC2CC2)C(=O)C(=O)NC2CC2)C3(C)C)C2(C)CCCCC2)CCCCC1 [compound 1320],> 7.12
9,CC(C)(C)[C@H](NC(=O)NC1(CS(=O)(=O)N2CCCCC2)CCCCC1)C(=O)N1C[C@H]2[C@@H]([C@H]1C(=O)N[C@@H](CCC1CC1)C(=O)C(=O)NC1CC1)C2(C)C [compound 1220],> 7.12
10,CCC[C@H](NC(=O)[C@@H]1[C@@H]2[C@H](CN1C(=O)[C@@H](NC(=O)NC1(CS(=O)(=O)N3CCOCC3)CCCCC1)C1(C)CCCCC1)C2(C)C)C(=O)C(=O)NC1CC1 [compound 1372],> 7.12
11,C[C@@H](C1(NC(=O)N[C@H](C(=O)N2C[C@H]3[C@@H]([C@H]2C(=O)N[C@@H](CC2CC2)C(=O)C(=O)NC2CC2)C3(C)C)C2(C)CCCCC2)CCCCC1)S(=O)(=O)N(C)C [compound 1414],> 7.12
12,CC(C)(C)[C@H](NC(=O)NC1(CS(=O)(=O)N2CCC2)CCCCC1)C(=O)N1C[C@H]2[C@@H]([C@H]1C(=O)N[C@@H](CC1CC1)C(=O)C(=O)NC1CC1)C2(C)C [compound 1342],> 7.12
13,CCCC[C@H](NC(=O)[C@@H]1[C@@H]2[C@H](CN1C(=O)[C@@H](NC(=O)NC1(CS(=O)(=O)N(CC)C3CC3)CCCCC1)C1(C)CCCCC1)C2(C)C)C(=O)C(=O)NC1CC1 [compound 1359],> 7.12
14,CCC[C@H](NC(=O)[C@@H]1[C@@H]2[C@H](CN1C(=O)[C@@H](NC(=O)NC1(CS(=O)(=O)N3CCC3)CCCCC1)C(C)(C)C)C2(C)C)C(=O)C(=O)NC1CC1 [compound 1341],> 7.12
15,CC(C)(C)[C@H](NC(=O)NC1(CS(=O)(=O)N2CCC2)CCCCC1)C(=O)N1C[C@H]2[C@@H]([C@H]1C(=O)N[C@@H](CCC1CC1)C(=O)C(=O)NC1CC1)C2(C)C [compound 1340],> 7.12
